Among the data in paper PMC6796939 are binding values, retold here.

Results are given in words; binding and its absence hold for the method and conditions named. In cells and extracts the contact can be indirect. Some binding calls cover weakened binding; strength is not graded here. For some of these results: Sequences can lack the tags named with a protein.

Holding throughout (assay): co-IP; S2 cells co-transfected with tagged constructs; lysed in NP-40 buffer (50 mM Tris-Cl pH 8.0, 0.1 M NaCl, 1% NP-40, 10% glycerol, 1.5 mM EDTA) at 4 °C; primary antibody (anti-V5, anti-HA, anti-Flag) 2 h, protein A/G 1 h; western blot; some panels with or without Hh (Hh plasmid and Hh conditioned medium), some with dsRNA against ptc 5'UTR to knock down endogenous Ptc
In general terms: Immunoblotting shows a protein as a band on a membrane.

In one assay the target is T1, Ptc-C7-V5 (Drosophila) (UniProt P18502).
T1 sequence: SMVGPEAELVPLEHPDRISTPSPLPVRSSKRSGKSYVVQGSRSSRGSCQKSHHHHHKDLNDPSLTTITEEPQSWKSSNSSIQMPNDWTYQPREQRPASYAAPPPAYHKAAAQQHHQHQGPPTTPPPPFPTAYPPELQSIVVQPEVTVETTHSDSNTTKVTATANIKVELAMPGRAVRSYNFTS

Assay [1] addresses T2, membrane-tethered Ptc-C4 (Myrflg-Ptc-C4-V5) (Drosophila) (UniProt P18502).
T2 sequence: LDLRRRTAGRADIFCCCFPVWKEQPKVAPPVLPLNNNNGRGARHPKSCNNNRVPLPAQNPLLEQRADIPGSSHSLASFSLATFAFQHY

The next assay addresses T3, SmoWT (Drosophila) (UniProt P91682).
T3 sequence: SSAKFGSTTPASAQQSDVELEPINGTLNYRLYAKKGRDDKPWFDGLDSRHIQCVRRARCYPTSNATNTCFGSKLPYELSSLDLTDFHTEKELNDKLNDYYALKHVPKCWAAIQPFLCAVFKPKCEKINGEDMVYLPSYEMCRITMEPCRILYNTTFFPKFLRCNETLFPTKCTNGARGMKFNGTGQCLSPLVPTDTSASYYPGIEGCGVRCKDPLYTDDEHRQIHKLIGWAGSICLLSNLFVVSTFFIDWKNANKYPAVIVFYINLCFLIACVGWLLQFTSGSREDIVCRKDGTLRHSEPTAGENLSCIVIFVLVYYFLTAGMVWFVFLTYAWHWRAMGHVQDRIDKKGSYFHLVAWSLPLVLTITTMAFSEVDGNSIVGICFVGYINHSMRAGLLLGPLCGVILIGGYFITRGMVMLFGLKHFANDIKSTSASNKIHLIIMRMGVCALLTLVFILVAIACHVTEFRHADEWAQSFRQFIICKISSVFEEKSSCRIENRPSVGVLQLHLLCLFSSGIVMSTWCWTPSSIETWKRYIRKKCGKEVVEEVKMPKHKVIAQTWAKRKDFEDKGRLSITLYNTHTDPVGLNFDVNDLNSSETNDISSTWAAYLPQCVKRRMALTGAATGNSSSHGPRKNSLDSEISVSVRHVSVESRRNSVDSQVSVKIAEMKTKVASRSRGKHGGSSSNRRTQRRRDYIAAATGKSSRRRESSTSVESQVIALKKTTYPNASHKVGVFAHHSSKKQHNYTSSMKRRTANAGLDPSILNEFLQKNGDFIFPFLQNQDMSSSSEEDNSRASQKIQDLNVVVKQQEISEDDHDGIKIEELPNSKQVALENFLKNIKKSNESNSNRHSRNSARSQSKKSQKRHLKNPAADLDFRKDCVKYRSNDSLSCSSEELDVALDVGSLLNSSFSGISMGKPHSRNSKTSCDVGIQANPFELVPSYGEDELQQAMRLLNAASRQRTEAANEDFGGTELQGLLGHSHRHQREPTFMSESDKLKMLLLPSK

Assay [2] addresses T4, membrane-tethered Ptc-C7 (Myrflg-Ptc-C7-V5) (Drosophila) (UniProt P18502).
T4 sequence: T1 sequence

As for “HA tagged PKAc (3XHA-PKAc) (from UniProt P12370 1-353) (enzyme)”, the binding result with Ptc-C7-V5 (Drosophila) was “no binding”; in assay [1] it was “binds”; in the assay with SmoWT (Drosophila) it was “binds”; in assay [2], “no binding”.
